# Assay results from the supplement of paper PMC3334620.
# In all, about 33,000 sequences were measured (“E-score (-0.5 to 0.5)”: median about -0.054, highest 2% from about 0.35 on). The list shows a part of the results.
# Target: T1, Stb5 (UniProt P38699)
# T1 sequence: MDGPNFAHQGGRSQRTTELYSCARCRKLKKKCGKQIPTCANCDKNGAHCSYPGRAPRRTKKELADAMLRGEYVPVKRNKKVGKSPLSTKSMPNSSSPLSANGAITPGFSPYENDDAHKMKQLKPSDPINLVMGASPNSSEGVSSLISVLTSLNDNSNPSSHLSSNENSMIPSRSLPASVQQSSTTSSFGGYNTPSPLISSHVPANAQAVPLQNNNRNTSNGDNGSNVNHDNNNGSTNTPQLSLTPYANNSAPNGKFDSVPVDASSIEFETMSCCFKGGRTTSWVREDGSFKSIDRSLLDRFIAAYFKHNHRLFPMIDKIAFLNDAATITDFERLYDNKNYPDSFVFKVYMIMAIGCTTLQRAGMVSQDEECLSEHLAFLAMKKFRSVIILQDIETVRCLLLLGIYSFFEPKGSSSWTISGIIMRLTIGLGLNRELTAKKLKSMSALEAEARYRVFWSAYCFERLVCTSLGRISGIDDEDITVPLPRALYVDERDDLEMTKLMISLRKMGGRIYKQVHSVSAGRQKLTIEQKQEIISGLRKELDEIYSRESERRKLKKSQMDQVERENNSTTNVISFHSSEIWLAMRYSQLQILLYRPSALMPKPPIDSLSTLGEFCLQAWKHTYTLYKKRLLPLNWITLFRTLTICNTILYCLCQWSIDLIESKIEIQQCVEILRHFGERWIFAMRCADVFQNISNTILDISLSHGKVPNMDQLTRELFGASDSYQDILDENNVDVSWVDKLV
# Experiment: PBM E-score (8-mer binding enrichment) (E-score (-0.5 to 0.5)); higher = stronger / more preferred TF binding; most listed sequences are background and not binding sites
# Details: protein concentration: 200 nM; construct: GST-full length
# Method in brief: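 Universal all-10-mer Agilent arrays, double-stranded by primer extension on fresh or once-stripped slides, were probed with about 100-200 nM GST-tagged yeast transcription factors made by PURExpress. Fluorescent anti-GST detected bound protein, and masliner normalised the scans. E-scores from the Universal PBM Analysis Suite were given to each ungapped eight-base word pooled with its reverse complement.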
row,Sequence,PBM E-score
1,AAGCTGAT,-0.00913
2,ATGTCTGC,0.0734
3,GCACTATA,0.153
4,AACGACCC,-0.0753
5,TCGCGTCA,-0.112
6,CCCGGAGC,0.159
7,GTCCATTA,-0.0228
8,CCCACTCC,0.0762
9,AAGCCACA,-0.222
10,CATCTCCG,0.276
11,GCACACCA,-0.251
12,ATTCTTCC,0.0595
13,CCGCCATA,0.322
14,AGAGTTCC,-0.0784
15,ACCTTGTC,-0.111
16,AGAGTCCG,0.378
17,ACTCCGTG,0.352
18,GATATACA,0.0751
19,ATTACGCA,0.0584
20,CTATGCCC,0.204
21,AAACTGGG,-0.247
22,GACCATCC,-0.175
23,AAACCTCT,0.015

row,Sequence,PBM E-score
1,CGAGGTCC,0.0488
2,ATTCCATG,-0.0707
3,CTCCTAAG,0.0338
4,GGGTGATA,0.219
5,CACAGACA,-0.0778
6,CCGATAAA,0.281
7,ATGCATTG,-0.141
8,AGGGGCCG,0.167
9,CAGATGGA,-0.116
10,CGCGATAA,-0.0936
11,AACAGGTC,-0.188
12,TGACAGAA,-0.146
13,ATGAAAAC,0.116
14,ACTACACA,0.048
15,GAACGCGA,-0.227
16,CGAATTCG,0.195
17,ATATGTAC,0.06
18,CGCGCACC,0.178
19,AGAGCAGA,-0.138
20,ACCGTATA,0.0568
21,CAGAGGCA,-0.171
22,AGACGGAT,0.149
23,AAGCCGCT,0.134

row,Sequence,PBM E-score
1,ATAGAAAA,-0.128
2,ACTCTCAC,-0.133
3,AGATACTG,-0.265
4,CATAATAA,-0.00495
5,AATTGCGT,0.029
6,AATATTGC,0.0636
7,CACACAGC,-0.085
8,CCTGAATA,0.00959
9,AAATGTGA,-0.209
10,AGCGCTCA,-0.129
11,CCTTGTCA,-0.122
12,AATGACGA,0.0145
13,CCGGACAC,0.283
14,ATCTTGCA,-0.104
15,GAAGCACC,0.155
16,GACTACTC,-0.0349
17,CCGTGCAG,0.15
18,ATCGGATC,0.195
19,CAATCCAA,-0.204
20,AGGCGTTA,0.122
21,ACGTGTAC,-0.196
22,AGTATAAT,-0.0572
23,CTCGCCGA,-0.0352

row,Sequence,PBM E-score
1,TACTACCA,-0.159
2,CAAAGATA,-0.131
3,CGTCCAGA,0.00993
4,GCATATCC,-0.197
5,ACCAAAGA,-0.0979
6,TAGCAATA,0.0214
7,ATTGGGAG,-0.135
8,CACTACTC,-0.0372
9,AGAACAAT,-0.197
10,CGTATAGC,0.224
11,GTCGTAAA,0.0847
12,AAAGTGTG,-0.269
13,AAAACTCC,0.292
14,CCAACACC,0.119
15,AGTTACAG,-0.151
16,ACACGGTC,0.115
17,CACGATAG,-0.164
18,CCAAATGA,-0.169
19,AGCGGAAT,0.228
20,CGAACGCC,0.153
21,GATCATTA,-0.0339
22,GCAGTCAA,-0.0992
23,AGCTGGGC,-0.0962

row,Sequence,PBM E-score
1,TCCACACA,-0.0936
2,AGATCGAC,-0.103
3,AAATTCGA,0.0745
4,GGCATTGA,0.216
5,GCCAAGGC,-0.22
6,CAGTGTCG,0.0936
7,CTAAAAAG,-0.0674
8,ATGCACTG,-0.241
9,AATATTTA,-0.169
10,CACCTCGC,0.0627
11,AGTTATTG,-0.0485
12,CAAGCGTA,-0.179
13,CCCTGCAA,-0.151
14,CTTAACAC,0.075
15,AAGCCCTA,-0.0699
16,ACGGGAGT,0.209
17,CACATTCC,0.178
18,CCCATAGG,-0.136
19,CCTTGGCA,-0.227
20,GTATCAAA,-0.101
21,ACGGTTGC,-0.0121
22,GTTATCGA,-0.0558
23,ATGCGCGC,0.127

row,Sequence,PBM E-score
1,ACTTAAAA,0.169
2,CGGCTATC,0.183
3,CTGGCCAA,-0.22
4,AAGGGGCC,0.0126
5,AGAGAACA,-0.297
6,ACATAGCC,0.00889
7,CCCGCTGA,0.27
8,ATTCCCGC,0.4
9,CCCTATTC,0.0812
10,AGGAGCCG,0.0365
11,AGGCAGAG,-0.303
12,GGTGGTCA,-0.0287
13,ACTCCACC,-0.107
14,ATCTTTTC,-0.117
15,TGTGGAAA,-0.0271
16,AACTATTC,0.00015
17,ACCTGCCT,-0.151
18,ATACGGAA,0.18
19,CTAGATAG,-0.127
20,AGTCACGC,-0.138
21,CCGATCGA,0.285
22,GATAGAAA,0.0191
23,TCCCAGGA,-0.129

row,Sequence,PBM E-score
1,GAATTCCA,-0.0966
2,AAATCTTC,-0.0716
3,AGAGAACC,-0.125
4,ACTTGGGC,0.00016
5,CCTAAGAG,-0.15
6,TGGCCCCA,-0.308
7,CGGCAGTA,0.4
8,AGGTAGAG,-0.118
9,ACAGCGAC,0.168
10,ATTCCCGG,0.319
11,AAAAATAA,0.0182
12,TTAAGAAA,-0.105
13,CCCGGTCC,0.238
14,AGAAAATA,0.047
15,CACGTGGG,-0.179
16,GCTCAAGC,-0.0534
17,GGCCCATA,0.00356
18,GGACGCTA,-0.0496
19,AAGCTTGC,-0.243
20,ACCGCGAC,0.29
21,CCGTAGAA,-0.0331
